IC50 data for 1 compound are collected here from patent publication US20240261263A1, “COMPOUNDS AND METHODS TO SENSITIZE CANCER CELLS TO TYROSINE KINASE INHIBITORS” (Da Zen Theranostics, Inc., priority 2016, published 2024).

The test system of test [1] is A549/DDP (Cisplatin Resistant). The experiment in a line: Crystal Violet cell proliferation assay, A549/DDP. The following applies: Homo sapiens, A549/DDP, 72 h.
The subject of the next test is H1975. The experiment in a line: Crystal Violet cell proliferation assay, H1975. The following applies: Homo sapiens, NCI-H1975, 72 h.
A further test relates to H1650. The experiment in a line: Crystal Violet cell proliferation assay, H1650. The following applies: Homo sapiens, NCI-H1650, 72 h.
In the next test the test system is A549 parental. The experiment in a line: Crystal Violet cell proliferation assay, A549. The following applies: Homo sapiens, A549, 72 h.

Like-named read-outs stand apart in the source and are kept apart here.

With `C#Cc1cccc(Nc2ncnc3cc4c(cc23)OCCOCCOCCO4)c1` [Icotinib], the IC50 was 34.6 µM in test [1] (read-out: IC50 of TKIs A549/DDP, TKI + 5 uM DZ1-SIM Amide, 72 h); 7 µM in test [1] (read-out: IC50 of TKIs A549/DDP, TKI + 6 uM DZ1-SIM Amide, 72 h); 7 µM in test [1] (read-out: IC50 of TKIs A549/DDP, TKI + 7 uM DZ1-SIM Amide, 72 h); 18.6 µM in test [1] (read-out: IC50 of TKIs A549/DDP, TKI alone, 72 h); 8 µM in the test on H1975 (read-out: IC50 of TKI H1975, Example 5, TKI alone, 72 h); 37.3 µM in the test on H1975 (read-out: IC50 of TKI H1975, TKI + 10 uM RO (RO4929097), 72 h). Besides, the IC50 is 13 µM with H1975 (read-out: IC50 of TKI H1975, TKI + 15 uM RO (RO4929097), 72 h); 28.8 µM in the test on H1975 (read-out: IC50 of TKI H1975, TKI + 20 uM RO (RO4929097), 72 h); 3.4 µM with H1975 (read-out: IC50 of TKI H1975 Mean (95% CI), TKI + 5 uM DZ1-SIM Amide, 72 h); 0.1 µM with H1975 (read-out: IC50 of TKI H1975 Mean (95% CI), TKI + 6 uM DZ1-SIM Amide, 72 h); 0.04 µM in the test on H1975 (read-out: IC50 of TKI H1975 Mean (95% CI), TKI + 7 uM DZ1-SIM Amide, 72 h); 10.2 µM with H1650 (read-out: IC50 H1650 Mean (95% CI), drug alone, 72 h). Besides, the IC50 in the test with H1650 (read-out: IC50 of TKI H1650 Mean (95% CI), TKI + 4 uM DZ1-SIM Amide, 72 h) was determined as 1.8 µM; with H1650 (read-out: IC50 of TKI H1650 Mean (95% CI), TKI + 5 uM DZ1-SIM Amide, 72 h), 0.9 µM; in the test with H1650 (read-out: IC50 of TKI H1650 Mean (95% CI), TKI + 6 uM DZ1-SIM Amide, 72 h) it was 0.02 µM; in the test with A549 parental (read-out: IC50 of TKIs A549, TKI + 7 uM DZ1-SIM Amide, 72 h), 3.3 µM; in the test with A549 parental (read-out: IC50 of TKIs A549, TKI + 8 uM DZ1-SIM Amide, 72 h), 0.2 µM; in the test with A549 parental (read-out: IC50 of TKIs A549, TKI + 8.5 uM DZ1-SIM Amide, 72 h), 1.4 µM. Further, the IC50 in the test with A549 parental (read-out: IC50 of TKIs A549, TKI + 9 uM DZ1-SIM Amide, 72 h) was 0.2 µM; in the test on A549 parental (read-out: IC50 of TKIs A549, TKI alone, 72 h), 15.6 µM.
